Data published in PubChem BioAssay AID2147 (National Center for Advancing Translational Sciences (NCATS), 2009).
The campaign covered roughly 230,000 compounds. About 3,600 (1.6%) were called active. The inconclusive results got no clear call from the source; some entries with a clear call stand among them for comparison. Calls follow the shape of the dose curve; as a rule, active = well fitted inhibition curve with a large enough effect (not every such curve was filed as active); inconclusive = small, poorly fitted or top-dose-only effect, or another doubt; inactive = no such curve, though single readings can be large or run the other way. A potency beside an inconclusive call is a rough fit, not a confirmed value. A structure can be active in one record and inactive in another.

The compounds below were run against Lysine-specific demethylase 4E (Homo sapiens) (UniProt B2RXH2) (assay: qHTS Assay for Inhibitors of Human Jumonji Domain Containing 2E (JMJD2E)). Conditions: JMJD2E catalytic domain, FDH-coupled NADH fluorescence (FDH is formaldehyde dehydrogenase); series mostly up to 57.1 µM.
Sequence of UniProt B2RXH2 (B2RXH2 whole entry, looked up, the tested form may be a part): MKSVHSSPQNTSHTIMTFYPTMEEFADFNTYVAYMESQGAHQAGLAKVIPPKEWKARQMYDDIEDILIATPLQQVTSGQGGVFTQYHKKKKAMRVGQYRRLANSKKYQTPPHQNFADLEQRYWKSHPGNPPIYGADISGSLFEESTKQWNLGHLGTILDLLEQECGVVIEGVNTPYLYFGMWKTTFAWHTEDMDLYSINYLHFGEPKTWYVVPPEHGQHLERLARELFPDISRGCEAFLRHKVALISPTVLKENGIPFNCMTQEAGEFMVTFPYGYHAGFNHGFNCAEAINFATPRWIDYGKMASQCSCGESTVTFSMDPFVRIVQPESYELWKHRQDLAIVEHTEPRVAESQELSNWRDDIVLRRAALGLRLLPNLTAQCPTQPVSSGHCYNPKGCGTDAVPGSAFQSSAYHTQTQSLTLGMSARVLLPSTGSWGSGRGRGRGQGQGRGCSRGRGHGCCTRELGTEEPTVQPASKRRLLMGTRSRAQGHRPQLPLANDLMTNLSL
Also: nearly all actives have a fitted effect of over 50% in size.
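For activity change, negative = inhibition in this document: 0% = wells with enzyme and -100% = buffer wells without enzyme.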
Potency is read from the fitted curve at half-maximal effect; tags tell the direction and shape of the fitted curve.

SMILES | Potency | activity change, negative = inhibition
CCN(CC)C(=O)C1CCN(S(=O)(=O)c2ccc3oc4ccccc4c3c2)CC1 | inconclusive: 0.891 µM [inhibitor, single point] | 
O=C(CSc1nnc2ccccn12)NNC(=O)c1ccc(F)cc1 | inconclusive: 39.8 µM [inhibitor, single point] | 
O=[N+]([O-])c1ccc(N2CCN(Cc3ccccc3)CC2)c(S(=O)(=O)N2CCOCC2)c1 | inactive | 
CSc1nnc(C)c(/C=C/NOCc2ccc(Cl)cc2)n1 | inconclusive: 0.794 µM [inhibitor, single point] | 
Oc1ccc(N=Nc2cccc(C(F)(F)F)c2)cc1C=Nc1ccc(N2CCOCC2)cc1 | inactive | 
COc1ccccc1-c1csc(NC(=O)c2ccc(N3C(=O)CCC3=O)cc2)n1 | inconclusive: 28.2 µM [inhibitor, single point] | 
COc1cc(NC(=O)c2cc(C(C)C)on2)c(OC)cc1Cl | inconclusive: 39.8 µM [inhibitor, single point] | 
COc1cc(NC(=O)C2CCCO2)c(OC)cc1NC(=O)c1ccccc1 (stereo not drawn) | inactive | 
COc1ccc(/C=C2\Oc3cc(OC(=O)N4CCOCC4)ccc3C2=O)cc1 | inconclusive: 39.8 µM [inhibitor, single point] | 
CCOc1ccc(C(=O)Nc2nc3ccccc3[nH]2)cc1OCC | inactive | 
CC(C)C1CCC(C(=O)NC(Cc2ccccc2)C(=O)O)CC1 (stereo not drawn) | inactive | 
Cc1ccccc1Nc1oc(-c2ccccc2)nc1-c1ccccc1 | inconclusive: 35.5 µM [inhibitor, single point] | 
CC(C)(C)NC(=O)C(c1ccncc1)N(Cc1ccc(F)cc1)C(=O)c1ccc(-c2ccccc2)[nH]1 (stereo not drawn) | inconclusive: 35.5 µM [inhibitor, single point] | 
COc1cccc(/C=N/NC(=O)c2cc3c(OC)cccc3[nH]2)c1OC | inconclusive: 25.1 µM [inhibitor, single point] | 
COc1ccc2c(c1)cc1n2CCN=C1NCCO | inconclusive: 35.5 µM [inhibitor, partial curve] | 
C=CCOc1c(CNc2ccc3[nH]c(=O)[nH]c3c2)cccc1OC | active: 20 µM | 
COc1ccc(-c2[nH]ncc2CN(C)C(C)c2cccs2)c(F)c1 (stereo not drawn) | inactive | 
O=C1c2cccc3cccc(c23)C(=O)N1OS(=O)(=O)c1ccc(Cl)cc1 | inconclusive: 10 µM [inhibitor, partial curve] | 
Cn1c(=O)c2c(nc(CN3CCc4ccccc4C3)n2Cc2ccccc2)n(C)c1=O | inconclusive: 39.8 µM [inhibitor, single point] | 
N#Cc1nc(-c2ccccc2F)oc1NCc1cccc2c1OCO2 | inconclusive: 28.2 µM [inhibitor, partial curve] | 
COCCN(CCOC)Cc1cc(=O)oc2cc3c(cc12)CCC3 | inconclusive: 28.2 µM [inhibitor, single point] | 
CC(C(=O)Nc1ccccn1)N1C(=O)C2C3C=CC(C3)C2C1=O (stereo not drawn) | inconclusive: 39.8 µM [inhibitor, single point] | 
COC(=O)Cc1cc(=O)oc2cc(OC)ccc12 | inconclusive: 17.8 µM [inhibitor, partial curve] | 

SMILES | Potency | activity change, negative = inhibition
CCOc1ccccc1C(=O)Nc1cccc(-c2ccc3nncn3n2)c1 | inconclusive: 39.8 µM [inhibitor, single point] | 
N#Cc1sc2nc3c(cc2c1N)CCCC3 | inconclusive: 25.1 µM [inhibitor, single point] | 
O=C(NN1C(=O)c2ccccc2C1=O)C1CC2CCC1C2 (stereo not drawn) | inconclusive: 39.8 µM [inhibitor, single point] | 
CC(C)N1C(=O)c2ccccc2N(Cc2ccccc2)S1(=O)=O | inconclusive: 39.8 µM [inhibitor, single point] | 
CC(=O)c1cc(CN2CCC(N3CCC(C(=O)N4CCCC4)CC3)CC2)cs1 | inactive | 
CCSc1n[nH]c2nc3c(c(=O)n12)C1(CCCCC1)Cc1ccccc1-3 | inconclusive: 14.1 µM [inhibitor, partial curve] | 
N#CC1=C(N)OC2=C(C(=O)CC(c3ccco3)C2)C1c1ccc(OCc2c(F)cccc2Cl)cc1 (stereo not drawn) | inactive | 
COc1ccc(CNC(=O)Cc2c(C(=O)O)[nH]c3ccccc23)cc1 | inconclusive: 39.8 µM [inhibitor, single point] | 
Cc1cc(C(F)(F)F)nc(SCC(=O)NC2CC3CCC2C3)n1 (stereo not drawn) | inactive | 
CCOC(=O)C1CCN(Cc2ccccc2C(F)(F)F)CC1 | inconclusive: 20 µM [inhibitor, single point] | 
CCN(CC)S(=O)(=O)c1cc(C)ccc1NC(=S)Nc1cccnc1 | inconclusive: 39.8 µM [inhibitor, single point] | 
Cc1cc(-c2nc(C)c(-c3nnc(SCC(=O)Nc4ccccc4)n3C)s2)no1 | inconclusive: 35.5 µM [inhibitor, single point] | 
CCc1nnc(NC(=O)c2ccc(NS(=O)(=O)c3ccccc3)cc2)s1 | inconclusive: 31.6 µM [inhibitor, single point] | 
CN=C(C)c1c(O)c2ccccc2oc1=O | inconclusive: 28.2 µM [inhibitor, single point] | 
CCN1C(=O)/C(=C/C=C2\C=CN(CC)c3ccccc32)SC1=S | inconclusive: 1.58 µM [inhibitor, full curve] | 
CCC(=O)Nc1ccc(Cl)c(NC(=O)c2ccccc2OC)c1 | inconclusive: 39.8 µM [inhibitor, single point] | 
C/C=C\C=C/C(=O)Nc1cccc(C2=NOC3(C2)C[C@H](C(N)=O)N(C(=O)Cc2ccc([N+](=O)[O-])cc2)C3)c1 (stereo partly drawn) | inactive | 
CC(C)COC[C@H](CN(Cc1ccccc1)c1ccccc1)N1CCCC1 | inactive | 
CN(C1CCCCC1)S(=O)(=O)c1ccccc1 | inconclusive: 22.4 µM [inhibitor, partial curve] | 
COc1nc(-c2ccccc2)ccc1-c1noc(-c2ccco2)n1 | inconclusive: 35.5 µM [inhibitor, partial curve] | 
COc1ccc(/C=C2\SC(=S)N(CC(=O)N3CCN(C)CC3)C2=O)cc1 | inactive | 
Cc1ccc(/C=C/c2ccc(=O)n(Cc3ccc(F)cc3)n2)cc1 | inconclusive: 28.2 µM [inhibitor, partial curve] | 
CC1C/C(=C/c2cccn2C)C(=O)/C(=C/c2cccn2C)C1 (stereo not drawn) | inconclusive: 25.1 µM [inhibitor, partial curve] | 

SMILES | Potency | activity change, negative = inhibition
COC(=O)c1coc(-c2ccc(OC)cc2)c1C(=O)OC | inconclusive: 28.2 µM [inhibitor, single point] | 
CCOC(=O)Cc1csc(NC(=O)NC2(C(F)(F)F)Oc3cc(Cl)c(Cl)cc3O2)n1 | active: 28.2 µM | 
CC(=O)OCC(=O)Nc1ccc([N+](=O)[O-])cc1Cl | inactive | 
CSc1nc2ccccc2cc1/C=C(\C#N)c1cccc(C)c1 | inconclusive: 14.1 µM [inhibitor, partial curve] | 
CCC(C)(C)n1nnnc1C(C(C)C)N(Cc1ccco1)Cc1cc2cc3c(cc2[nH]c1=O)OCO3 (stereo not drawn) | inconclusive: 35.5 µM [inhibitor, single point] | 
O=C(Nc1cccc(-c2nnc(-c3ccccc3)o2)c1)c1ccco1 | inconclusive: 39.8 µM [inhibitor, single point] | 
CC1CCN(c2nc(-c3ccco3)c3c(c2C#N)CC(C)(C)OC3)CC1 | inconclusive: 31.6 µM [inhibitor, partial curve] | 
Cc1ccc(-c2nc(CS(=O)CC(=O)N3CCN(c4ncccn4)CC3)c(C)o2)cc1 (stereo not drawn) | inconclusive: 35.5 µM [inhibitor, single point] | 
O=C(c1ccc([N+](=O)[O-])cc1)N1CCSC1c1ccccc1Cl (stereo not drawn) | inconclusive: 39.8 µM [inhibitor, single point] | 
COc1ccc(N2C=C3C(=O)C(C)(OC(=O)CCc4ccccc4)C(=O)C=C3C=C2c2ccc(C#N)cc2)cc1 (stereo not drawn) | active: 20 µM | inactive: -16.5% [at 11.4 µM]
Cc1nc(N2CCOCC2)c2c(C)c(C(=O)Nc3ccccc3C(F)(F)F)sc2n1 | inconclusive: 28.2 µM [inhibitor, single point] | 
CCN1CCc2c(C#N)c(N3CCCCC3)nc(NCc3ccccc3)c2C1 | inconclusive: 31.6 µM [inhibitor, single point] | 
COc1cc(CNc2ccc(O)cc2)cc(Br)c1OCc1ccccc1 | inconclusive: 14.1 µM [inhibitor, partial curve] | 
COc1ccc(NC(=O)CN(C)CC(=O)Nc2cccc(S(=O)(=O)N(C)c3ccccc3)c2)cc1 | inactive | 
C=C(C)CN(CC)C(=O)c1ccc(OC2CCN(S(=O)(=O)N(C)C)CC2)cc1 | inconclusive: 0.178 µM [inhibitor, full curve, poor fit] | 
COc1ccc(Cn2c(O)c(C=Nc3ccccc3)c3ccccc3c2=O)cc1 | inconclusive: 15.8 µM [inhibitor, partial curve] | 
COc1ccc(C(=O)Nc2nc(C)c3cc4c(cc3n2)OCO4)cc1 | inconclusive: 35.5 µM [inhibitor, single point] | 
O=C(Nc1ccc(OC(F)F)c(Cl)c1)C(c1ccccc1)c1ccccc1 | inactive | 
Cc1cccc(NC(=O)c2nc[nH]c2C(=O)Nc2cccc(C)c2)c1 | inconclusive: 28.2 µM [inhibitor, single point] | 
COc1ccccc1-c1cn[nH]c1-c1ccc(OCc2ccc(F)cc2)cc1O | inconclusive: 22.4 µM [inhibitor, single point] | 
C#Cc1ccc(C(=O)Nc2ccc(N3CCC(C)CC3)c(C(N)=O)c2)cc1 | inconclusive: 5.62 µM [inhibitor, single point] | 
